The other results are listed elsewhere or left out. At the low end of the ranking the order means little. Measured with an extract: partners may take part in the binding.

We go through 93 sequences from paper PMC10726135.

The target of the experiment is T1, HNF4alpha2 (COS-7 nuclear extract) (UniProt P41235).
T1 sequence: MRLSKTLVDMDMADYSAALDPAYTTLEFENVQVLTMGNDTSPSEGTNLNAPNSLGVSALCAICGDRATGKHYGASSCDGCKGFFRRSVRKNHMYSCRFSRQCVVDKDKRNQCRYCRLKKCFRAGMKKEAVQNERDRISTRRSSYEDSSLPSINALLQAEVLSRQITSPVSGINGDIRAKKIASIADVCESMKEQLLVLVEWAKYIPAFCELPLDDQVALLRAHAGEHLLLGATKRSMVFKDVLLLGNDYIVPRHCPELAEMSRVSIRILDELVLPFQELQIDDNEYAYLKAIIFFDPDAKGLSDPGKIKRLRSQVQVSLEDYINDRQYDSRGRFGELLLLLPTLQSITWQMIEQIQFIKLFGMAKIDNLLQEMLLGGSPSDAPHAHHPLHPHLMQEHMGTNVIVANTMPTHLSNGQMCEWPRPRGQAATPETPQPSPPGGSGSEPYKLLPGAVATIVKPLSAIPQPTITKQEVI
In words: protein-binding microarray. The following applies: COS-7 nuclear extract on double-stranded Agilent 4x180k PBM; binding buffer, salt, pH and temperature not given; high values mean tight binding; double strand, one strand shown; sequences stand for … in …GCCTAGGGAGATTAGAGTATCGGTCGA
Take TAAAATTCCCTGTGGAATTTTAAGCTTCAC: the binding signal (log2 normalized intensity) is -0.912.
To GTTCCCCCGTGTAGACACTCATCCCTTGCA belongs 2.42; to AGGTGAAGGCTGACCACGGGGGCCGCTCTC, -1.07.
To CCCCCTATCCCAAGACATCAATTAACTTGT belongs 3.05; to AGCATGGAGATGAGTGGGTTCACTTTGAGC, 1.11; to GAGGGAACGCCCGACGCGAAGGCAGTGTGG, -1.22.
On to TACACAACAGCACTTGTGCAGTTTTTCTGC, for which the binding signal (log2 normalized intensity) was -1.13.
To TAAGATACTGAAATGCCAAAAAAGAAGAAG belongs -1.09; to CATTGTGTGCAGACCTTCTCTGGCCCTCAC, 0.878; to CTGGGCCCTGCCTGACCTGCCCTTTGTCCC, 6.28.
The result for ACCCTGCAATTCCCCTGGGCCCACGGCTCT reads -1.22; that for TGACCTGGAGCATGACCCTTTGCAGGTGGG, 1.92.
To ATTAAATCTTGTTGGCTTGACGCTAACTTC belongs -0.983; to GCTCAGTCCAAGTCCAAAGGTCTGAGAACC, 3.98; to TGGGAGCCTTGCACACTCGCCTGGCTCCCC, -1.12.
As to TAGGCATTCTTAGACACAGTCTGAGATAGA, the binding signal (log2 normalized intensity) was -1.09.
To GGATTTTTTCTTGGACTTTGGTCATCCTTT belongs 6.83.
To CCTTCACTATTTTCAAAGGTCAACATACAG belongs 3.12; to ATACCACTGATAAGGTTCCAGCAAAGAGAT, -0.71; to ATCGCTTCCAGGGTTACCGGCAGAGAGAAG, -0.689.
CTGGTAGCAGGGGTGGTTCATTTGCACTTG: the binding signal (log2 normalized intensity) worked out at 1.32.
The result for CAAACCAAAAAGTTGGTTGGAGCTATGGGC reads -1.15; that for TACTTAGTGTTTTATGTGTATTTACTTATT, 2.32; that for CTTAGGGAACAAAGGTCAGTCCCGCAGTGA, 4.76.
As to TGGACCTGCTCTGTTTTCTTTCGGTCACCC, the binding signal (log2 normalized intensity) was 2.1.
Take GTCCAAGTCACTATCACCTCTCCCACCTGA: the binding signal (log2 normalized intensity) was 2.41.
To CTCCCCCTTTCTCCGCTAAGTGGCTCGACA belongs 2.25; to TGATCCTGGTAGCAGGGGTGGTTCATTTGC, 1.4.
The result for GTTAGACAGTGCCTATGTTGGAATGCCTAA reads -0.576; that for TTACTGTGTAAACTTTGCAGCAGATAATTA, -1.05.
The result for GTCCAGAGTCCACGTACTTAACTACTACAC reads 0.802; that for TTCCTGGCCTCTCTGCAAATTTGCCTTGTC, 0.429; that for ACTATTTTCCTAAATATGTTCCAAAGTTCA, 3.81.
Regarding TATTTCACAGGGATAAGCATGGAGATGAGT, the binding signal (log2 normalized intensity) was determined as 0.632.
As for CACACCCCACGTACATTGCACCCTCCAGGA, the binding signal (log2 normalized intensity) was 2.2.
For the sequence ATCTCACTAACAGTGTTCCTCGTGTGTTCT, the binding signal (log2 normalized intensity) stood at 1.8.
TCCAAAATCTGCATCCCCAAGCTGTTATTC: the binding signal (log2 normalized intensity) is 2.06.
The result for ATTCCACACTGCAGGCTCTGTCCCCGCCCA reads 2.91; that for ACCCAGAGCCCCACCGTTGTGTAATCTCTT, 1.69.
Turning to AAGTCCAAAGTTCTTGGCCAGGCATGGAGA, the binding signal (log2 normalized intensity) was 2.49.
In the case of CCCCACCCCACTCCACCTACGCTACGCACC, the binding signal (log2 normalized intensity) was found to be 4.38.
With TGAAATATGCCCAGAGCTTTGTTCTGTTCC, the binding signal (log2 normalized intensity) worked out at 0.402.
With TGTTGCTCTCTTGCCATTCGTGGATGAGCG, the binding signal (log2 normalized intensity) was -0.0128.
For the sequence CTTGAGGAGCCCTATCCGCAGCTGCTGACA, the binding signal (log2 normalized intensity) was -1.21.
The result for CTGGGAGGTAAACTGTAAACCTTTGAAATG reads 0.607; that for TATCAGCTCTCCGTGGACTTTGCCCCCTAC, 11.1; that for TATGTGTGTGCTTTAACAAGGTGTGTTTGA, 2.08.
The result for CTGGCCTGCTGGGAACTCAGGATCAAACAG reads -1.07.
The result for CTGCACCCTACGTAAATGCACGGAAGCCTT reads -1.12; that for TTTGGCTGGTAGAGCAGGTTTCAGAGGCTC, -0.75.
AGAGTTAGCTAAGCTTCACTGACATTCCAG: the binding signal (log2 normalized intensity) was -0.883.
Turning to CTTTATCTCTCTCTCTTTCTTCCCCCACTC, the binding signal (log2 normalized intensity) amounted to 4.59.
The result for AGGGCTGAAGGTTAATTCGCTCATCAATGG reads -0.0658; that for GGATCAATGGATCCACTCAGTATGGCAACC, -1.01.
To CTATTTCTGACCTTTGCACCAGAGATAATA belongs 5.8.
Consider GTCCGGCAGAGCTATGGAATTTTGGCCTTT, for which the binding signal (log2 normalized intensity) is 3.22.
The result for GGCCAGATAAAGCAGGTTGTACCTTGACCC reads 8.92; that for TTCCACTGACTTGCAACCTTTGCCCTGTTG, 6.31.
As to TCCTCAGGGAGGAAGGCAACCACAGCCTCT, the binding signal (log2 normalized intensity) is -1.16.
To GCCCTTTGCCCTTTGCCCAACCCTCTCCCA belongs 5.55; to GACGAGCTGTCACTGGCTGCTGCTCAGGAG, -1.11; to TGGAAGAGCCTGCAAGGGAGACCAGGAAAG, -1.14.
The result for TCCCCTCCCTCAGCTCTGCCCAGACCTTAT reads 3.8.
The result for TTGATCAGGGACCTTTGTTCCTTTACACAT reads 3.32.
As for CTTTGGAACCTGCCCTCTGTCCCATGGTGT, the binding signal (log2 normalized intensity) came out at 2.48.
The result for CCAAGGTTCTCCAGGGACCCCCCGACCCCA reads 5.52.
The result for GTGCTCCCTCCCCCTGCATGAACCTTTGCT reads 3.19; that for AGAAAAAGGAGCAGATGGCTAGTGACTCAG, -1.03.
The result for TGTGCAAAATACCTGGAAGTATTTATTGAG reads 0.799; that for GTTATCTCATTACTCTGCATAAGGACCTCC, 0.652.
Regarding TTGTTGTTATCCATTTAAAAAGTATTTATT, the binding signal (log2 normalized intensity) came to 0.906.
To CCCACCTCTCAGACAGAGCTGGTCTGTGCT belongs -1.13.
For TTGGAATGTTCCAAGACCTTTGAAGCTTGC, the binding signal (log2 normalized intensity) turned out to be 2.05.
With CCAGTTTTCCCAAAGGAGCTTTATTGGTTC, the binding signal (log2 normalized intensity) was determined as 1.5.
GTTTTGTGAGTTTTCTTCTGAAATTGCTCA: the binding signal (log2 normalized intensity) is 0.613.
The result for GGCCATGTGCAGAGGAGGGGGCAGGAGCCC reads -1.1; that for TCGCAGTCATAAATACTCATTATGTTGCTG, -0.834.
To GGAACACGAGGTGAGAGGCGGAACAAGGCT belongs -1.07; to GAACCCACATCACTGGCCAAAGGTAATAGG, -0.776.
The result for CAGTCTATCAGACCAGCATTCTTTCTGCTG reads -1.08.
Consider ACCAGGCAGTTTCCCGGTTCCTGATCTCAG, for which the binding signal (log2 normalized intensity) is -1.11.
Turning to CAAACCTTTGACCTTTCCATAGTTCCGAGT, the binding signal (log2 normalized intensity) was determined as 3.65.
To GGCATCTACTTTTAAAACGCTCAAATAAGC belongs -0.972.
As for GGGCCTACCTGCCTGAGCTATCTGTTTGAG, the binding signal (log2 normalized intensity) was -0.641.
On to AGTATCATGTTGGCATTCCAGGATGAAGGA, for which the binding signal (log2 normalized intensity) came to 0.674.
To CTGCCTTATCGTATTCTTATCAATACCTGT belongs 1.29.
The result for AGGCAGCCACCCACAAGCCAAGGAGAGAGG reads -1.07; that for CACTGTTTATTTTGTGTGATACTCAAGGCA, 1.83.
To TTAAGGCCAGATGGCCACCCTTCAGCAAAT belongs -1.02; to GCTGTCCAAGGTGCTAGCTCCGACTCAGTG, -1.09; to TAATGGCAGAATCAAAGGTCAAAATATCTG, 3.33.
For GTGAGGAATGCAACCACACCAACATGGACT, the binding signal (log2 normalized intensity) is 1.61.
The result for GACACCTTCAGGGCTGAGCCCACAGTCCAG reads -1.22.
